These results are taken from the supplement of paper PMC12645437, “Orthogonal IMiD-Degron Pairs Induce Selective Protein Degradation in Cells” (ACS Chemical Biology, 2025).

This is one part of the list.
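Further: jurkat cells carrying a lentiviral library of mutant zinc finger degrons fused to EGFP plus mCherry, mCherry+ cells FACS sorted, degron abundance counted by next-generation sequencing.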

In this assay the target is no compound (DMSO). Description: log2 fold change of degron read counts, EGFP-low vs EGFP+ sorted cells; higher = lower degron-EGFP level without compound (poor expression or instability). The following applies: compound: DMSO control; 18 h.
As to LMCPICGFYCTQKGNLLRHIKL, the “log2 fold change of degron read counts” value is 1.63.
For the sequence FCCEQCGAYFTQKGNLLRHIKL, the “log2 fold change of degron read counts” value was -1.7.
The same measure for FNCNQCGANFTQKGNLLRHIKL: -0.713; for FNCNQCGRVFTQKGNLLRHIKL: 0.425; for FYCEICGHQFTQKGNLLRHIKL: -0.756.
On to FDCEVCGASFTQKGNLLRHIKL, for which the “log2 fold change of degron read counts” value was -2.46.
Consider FCCEQCGAVFTQKGNLLRHIKL, for which the “log2 fold change of degron read counts” value is -1.52.
With FACSVCGHKFTQKGNLLRHIKL the figure was -1.12; with LKCEICGFLCTQKGNLLRHIKL, 0.0424; with FCCEVCGAWFTQKGNLLRHIKL, -1.27.
In the case of FWCDICGAPFTQKGNLLRHIKL, the “log2 fold change of degron read counts” value came out at 0.384.
In the case of FICEICGHVFTQKGNLLRHIKL, the “log2 fold change of degron read counts” value was -1.98.
Regarding FCCEQCGANFTQKGNLLRHIKL, the “log2 fold change of degron read counts” value was -3.27.
With FACPICGAFFTQKGNLLRHIKL the figure was 0.578; with FWCDICGAHFTQKGNLLRHIKL, -0.306.
With LHCEICGFHCTQKGNLLRHIKL, the “log2 fold change of degron read counts” value was 0.211.
For FGCNICGAMFTQKGNLLRHIKL, the “log2 fold change of degron read counts” value turned out to be 0.213.
Regarding FACSVCGHNFTQKGNLLRHIKL, the “log2 fold change of degron read counts” value is -0.767.
Turning to FACNICGAPFTQKGNLLRHIKL, the “log2 fold change of degron read counts” value came out at 0.64.
The same measure for FNCNICGAHFTQKGNLLRHIKL: -0.585; for FTCNICGAVFTQKGNLLRHIKL: -0.512; for FICDQCGAIFTQKGNLLRHIKL: -0.974.
For FMCPICGRHFTQKGNLLRHIKL, the “log2 fold change of degron read counts” value amounted to 0.268.
The same measure for FHCNVCGAGFTQKGNLLRHIKL: -0.481; for FGCPICGHEFTQKGNLLRHIKL: -0.608.
The same measure for FDCDQCGAKFTQKGNLLRHIKL: -3.3.
Consider FKCNQCGRLFTQKGNLLRHIKL, for which the “log2 fold change of degron read counts” value is 0.137.
In the case of FWCDICGAEFTQKGNLLRHIKL, the “log2 fold change of degron read counts” value was -1.69.
In the case of FLCEICGAPFTQKGNLLRHIKL, the “log2 fold change of degron read counts” value was -0.295.
The same measure for LCCEICGFMCTQKGNLLRHIKL: 0.0505.
Consider FLCNQCGAGFTQKGNLLRHIKL, for which the “log2 fold change of degron read counts” value was -0.315.
With LNCNQCGFGCTQKGNLLRHIKL the figure was 1.44.
